From publication PMC4336329 (PLoS ONE, 2015)
Out of some 310,000 compounds screened, about 14,000 (4.5%) showed an effect of 50% or more. Effects have a minus sign here. This is one part of the list.

The compounds below were run against human ether-à-go-go-related gene (hERG) potassium channel (human, UniProt Q12809) (assay: primary screen, population patch clamp on CHO cells stably expressing hERG).
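Note: peak tail current of the secondary pulse compared with the same well before compound.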

Chain of human ether-à-go-go-related gene (hERG) potassium channel (Q12809 whole entry, looked up): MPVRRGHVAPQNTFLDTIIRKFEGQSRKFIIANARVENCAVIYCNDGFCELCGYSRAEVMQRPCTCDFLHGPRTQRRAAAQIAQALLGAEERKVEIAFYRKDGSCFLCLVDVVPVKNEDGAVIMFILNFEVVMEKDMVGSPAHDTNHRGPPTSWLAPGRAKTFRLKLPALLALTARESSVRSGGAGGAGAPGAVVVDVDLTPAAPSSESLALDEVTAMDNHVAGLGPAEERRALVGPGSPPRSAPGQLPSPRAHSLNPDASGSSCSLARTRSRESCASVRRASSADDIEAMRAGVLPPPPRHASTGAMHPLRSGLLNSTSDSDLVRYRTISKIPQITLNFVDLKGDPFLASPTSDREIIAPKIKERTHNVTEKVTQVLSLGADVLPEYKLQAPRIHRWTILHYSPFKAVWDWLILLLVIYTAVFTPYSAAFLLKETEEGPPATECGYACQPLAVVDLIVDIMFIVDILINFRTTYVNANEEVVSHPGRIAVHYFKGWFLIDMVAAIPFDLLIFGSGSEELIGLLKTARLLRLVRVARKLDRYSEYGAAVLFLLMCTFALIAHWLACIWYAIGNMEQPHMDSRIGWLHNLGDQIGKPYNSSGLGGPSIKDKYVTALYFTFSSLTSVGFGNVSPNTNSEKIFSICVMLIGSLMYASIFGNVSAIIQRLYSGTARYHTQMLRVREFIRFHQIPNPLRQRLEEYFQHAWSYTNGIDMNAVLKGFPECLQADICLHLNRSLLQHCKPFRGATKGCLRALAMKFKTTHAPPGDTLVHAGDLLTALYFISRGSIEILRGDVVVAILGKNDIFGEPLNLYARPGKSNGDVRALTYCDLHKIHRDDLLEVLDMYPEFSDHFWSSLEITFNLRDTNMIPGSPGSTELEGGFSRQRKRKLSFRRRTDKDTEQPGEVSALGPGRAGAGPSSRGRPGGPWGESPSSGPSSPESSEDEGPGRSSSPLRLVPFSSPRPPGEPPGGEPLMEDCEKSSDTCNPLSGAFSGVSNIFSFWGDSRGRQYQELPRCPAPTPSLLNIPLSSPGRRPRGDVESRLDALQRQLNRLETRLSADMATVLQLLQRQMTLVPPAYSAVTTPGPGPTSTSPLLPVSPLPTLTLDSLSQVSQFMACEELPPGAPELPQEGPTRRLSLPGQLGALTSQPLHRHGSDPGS

| SMILES | hERG current change (%, negative = inhibition) at 10uM [%] |
| --- | --- |
| COc1cccc(OC)c1C(=O)Nn1c(-c2cccc(C)c2)nc2ccccc2c1=O | 11.1 |
| CCCCCn1c(Sc2nc3ccccc3s2)nc2c1c(=O)[nH]c(=O)n2C | -39.3 |
| CC(Cc1ccccc1)N1C(=O)c2ccccc2C1=O (stereo not drawn) | -2.85 |
| CCOc1ccc(N(CC(=O)NCCSc2ccccn2)S(C)(=O)=O)cc1 | 6.19 |
| O=C(OCn1nnc2ccccc2c1=O)c1ccco1 | -5.88 |
| CC(C)CC(=O)N1CCN(C(=O)c2ccco2)CC1 | 10.7 |
| COc1ccc(-c2nc(CS(=O)(=O)CC(=O)NCc3cccc(Br)c3)c(C)o2)cc1 | -31.2 |
| Cc1ccc(CNCCc2ccc(F)cc2)s1 | -5.62 |
| CCn1c(SCC(=O)N/N=C/c2ccc(C)s2)nc2ccccc21 | -20.7 |
| CSCCC(NC(=O)c1ccccc1Br)C(=O)NC(C)CCc1ccccc1 (stereo not drawn) | 18.6 |
| COC(=O)/C(=C(O)\C=C\c1ccccc1[N+](=O)[O-])c1nc2ccccc2[nH]1 | 12.4 |
| Cc1ccc(NC(=S)NCc2ccc(S(N)(=O)=O)cc2)cc1Cl | 18.2 |
| CN(Cc1ccccc1)c1nc(-c2cccc([N+](=O)[O-])c2)nc2ccccc12 | 3.02 |
| COC(=O)/C(N=Nc1cccc(C(F)(F)F)c1)=C(\C)O | -13.7 |
| O=C(NCCCNC(=O)c1ccco1)c1ccco1 | 0.119 |
| O=C(Nc1cccc(O)c1)c1ccc(C(=O)c2ccccc2)o1 | -9.95 |
| COc1ccc(NC(=O)Nc2ccc(Br)cn2)cc1OC | -6.12 |
| CN(Cc1ncc[nH]1)C(=O)CC1C(=O)NCCN1Cc1c(F)cccc1Cl (stereo not drawn) | 5.59 |
| Cc1ccccc1OCc1nnc(SCc2nc3ccccc3c(=O)[nH]2)n1C | 12.9 |
| CNC(=O)CCC(=O)Nc1ccc(C)cc1 | 4.78 |
| NC(=O)C1c2ccccc2CSc2ccccc21 (stereo not drawn) | 3.14 |
| CCOC(CNC(=O)Cc1c(C)nc2c(-c3ccccc3)c(C)nn2c1C)OCC | -20.5 |
| COc1ccc(C(=O)NCc2nnc(SCC(=O)N3CCCC3)o2)cc1OC | 25.6 |

| SMILES | hERG current change (%, negative = inhibition) at 10uM [%] |
| --- | --- |
| COc1ccc(N2CCN(CC(=O)c3c(C)n(C)c4ccc(OC)cc34)CC2)cc1 | -4.1 |
| CCOc1cc(C(=S)N2CCCC2)ccc1OCC(=O)Nc1c(C)cc(C)cc1C | 16.5 |
| C=CCNC(=S)/N=c1/ccccn1CC | 23.1 |
| CCN(CC(=O)NCc1ccc(Cl)cc1)C(=O)c1cc(S(=O)(=O)NCc2ccccc2)ccc1C | -25.6 |
| Cl.O=C(CSC1=NCCN1)Nc1cccc([N+](=O)[O-])c1 | -7.56 |
| O=C(CN(Cc1ccc(F)cc1)C(=O)CNS(=O)(=O)c1ccc(F)cc1)NCC1CCCO1 (stereo not drawn) | 4.02 |
| COc1cc(OC)cc(C(=O)N2CCC(C(=O)Nc3ccc4c(c3)OCCO4)CC2)c1 | 2.48 |
| Oc1[nH]c2ccccc2c1N=NC(=S)NCC1CCCO1 (stereo not drawn) | 12.7 |
| C=CCNc1nc(NCC)nc(N2CCOCC2)n1 | -0.791 |
| O=C1NC2(CCCC2)N=C1c1ccc(Cl)cc1 | -7.77 |
| O=C(NC1CCSC1)c1cccc(Cl)c1 (stereo not drawn) | 16.4 |
| COc1ccccc1-n1c(C)nnc1SCC(N)=O | 15.4 |
| COc1ccc(N2CCN(C(=O)c3c(Cl)cnn3C)CC2)cc1 | 4.26 |
| Cc1nc2c(-c3ccc(Cl)cc3)cnn2c2c1CCC2 | 1.41 |
| COc1ccc2nccnc2c1[N+](=O)[O-] | 21.2 |
| CCC(=O)NC(=S)Nc1cc(C(=O)O)ccc1OC | 15 |
| CCCNC(=O)COC(=O)c1n[nH]c2ccccc12 | 15.1 |
| CC1C/C(=N\NC(=S)NC(C)C)CC(C)(C)C1 (stereo not drawn) | 9.06 |
| Cc1c(NC(=O)CN2C(=O)NC3(CCCCC3)C2=O)c(=O)n(-c2ccccc2)n1C | 0.855 |
| CC(C)C[C@@H](C(=O)NC1CC1)N1C(=O)N2CCc3c([nH]c4ccccc34)[C@@]2(C)C1=O | -15 |
| CCOC(=O)N1CCC(N2Cc3cccc(C(=O)NC(C)c4ccc5c(c4)OCCO5)c3C2=O)CC1 (stereo not drawn) | -67.5 |
| COc1ccc(NS(=O)(=O)c2cccs2)cc1S(=O)(=O)N1CCOCC1 | 9.23 |
